Experimental data: PubChem BioAssay AID463173 (ICCB-Longwood Screening Facility, Harvard Medical School, 2010)
Among all 52,000 compounds or so, about 1,700 (3.3%) were called active. No stated cut-off is given here; in the data, active means survival mostly below about 52% (no sharp cut-off); inactive means mostly above about 56%. This is one part of the list.

system: Wild type; assay: growth inhibition of S. aureus wild type versus tarO mutant, primary screen, teichoic acid synthesis inhibitors, RN4220, OD600 (AID 463173); details: S. aureus RN4220 wild type/DeltatarO growth, OD600, 18 h, active compounds read low, screened at 18.75 µg/mL (by protocol)

**Q.** Which survival does the source give for `COc1ccc(C(=O)CN2CCN(S(=O)(=O)c3ccc(F)cc3)CC2)cc1` here?
**A.** Its survival is inactive: 89%.

**Q.** `CC(=O)OC1=C(C(C)=O)N(Cc2ccccc2)S(=O)(=O)c2ccccc21` was tested. Which survival did it give?
**A.** Its survival is inactive: 71%.

**Q.** `Cc1cc(NC(=O)c2ccc(F)cc2)ccc1-c1cc2ccccc2oc1=O` was tested. Which survival did it give?
**A.** Its survival is inactive: 81%.

**Q.** How did the survival turn out when `Cc1ccc(Cl)cc1NC(=O)c1csnn1` was run?
**A.** The survival was inactive: 85%.

**Q.** How did the survival turn out when `COc1ccc(-c2cn3c(n2)sc2cc(C(=O)Nc4ccc(F)cc4)ccc23)cc1` was run?
**A.** Its survival is inactive: 88%.

**Q.** `CC(=O)N1CCC2(CC1)OC(=O)C(C)=C2C(=O)NCc1ccccc1Cl` was tested. Which survival did it give?
**A.** Its survival is inactive: 70%.

**Q.** With `CCCCSc1nnc2[nH]c(=O)cc(C)n12` as the compound, how does the survival read?
**A.** Its survival is inactive: 95%.

**Q.** For `O=C(c1cc(-c2ccc(Br)cc2)n[nH]1)N1CCN(S(=O)(=O)c2ccc(Br)s2)CC1`, which survival is on record?
**A.** The survival was inactive: 78%.

**Q.** `CC1CCN(C(=O)CCS(=O)(=O)c2cc3c(cc2Cl)NC(=O)CO3)CC1` was tested. Which survival did it give?
**A.** The survival was inactive: 110%.

**Q.** `CCOC(=O)c1nnn(CC(=O)NC(=O)Nc2ccccc2F)c1C(=O)OCC` was tested. Which survival did it give?
**A.** Its survival is inactive: 88%.

**Q.** `Cc1cccc(CC(=O)NC2CC(=O)N(c3ccc4c(c3)OCCO4)C2)c1` (centres undefined) was tested. Which survival did it give?
**A.** Its survival is inactive: 71%.

**Q.** With `Fc1ccc(Nc2nc(SCc3cccc(F)c3)nc3ccccc23)cc1` as the compound, how does the survival read?
**A.** Its survival is inactive: 78%.

**Q.** Which survival does the source give for `O=c1cc(O)n(-c2ccccc2)c(=S)[nH]1` here?
**A.** The survival was inactive: 99%.

**Q.** With `CCOc1ccc(Nc2nc(N)c(C(=O)c3ccccc3Cl)s2)cc1` as the compound, how does the survival read?
**A.** Its survival is active: -2%.

**Q.** For `CCN(CC)S(=O)(=O)c1ccc(NC(=O)c2nn(C)c3c2CSc2ccccc2-3)cc1`, which survival is on record?
**A.** The survival was inactive: 84%.

**Q.** With `CCC(=O)N1CCc2cc(Br)cc(S(=O)(=O)CCC(=O)Nc3ccc(CC)cc3)c21` as the compound, how does the survival read?
**A.** The survival was inactive: 88%.

**Q.** For `Cc1ccccc1CSc1ncc(Cl)c(C(=O)NCc2ccccc2)n1`, which survival is on record?
**A.** The survival was inactive: 93%.

**Q.** With `CCOC(=O)c1ccc(N2C(=O)c3[nH]nc(-c4ccc(C)cc4)c3C2c2ccc(O)cc2)cc1` (centres undefined) as the compound, how does the survival read?
**A.** Its survival is inactive: 87%.

**Q.** Which survival does the source give for `COc1ccc(NC(=O)C(NC(=O)Cc2cccs2)c2ccc(OC)cc2)cc1` (centres undefined) here?
**A.** Its survival is inactive: 151%.

**Q.** With `Cc1cc(Br)cc(C)c1NC(=O)c1cnc2ccccn2c1=O` as the compound, how does the survival read?
**A.** Its survival is inactive: 97%.

**Q.** For `COc1cccc(NS(=O)(=O)c2ccc3[nH]c4c(c3c2)CCCCCC4)c1`, which survival is on record?
**A.** The survival was inactive: 81%.

**Q.** With `Cn1c(-c2ccccc2)cnc1SCc1ccccc1` as the compound, how does the survival read?
**A.** The survival was inactive: 119%.

**Q.** How did the survival turn out when `Cn1c2c(c(=O)n(C)c1=O)C(c1cccc(O)c1)CC(=O)N2` (centres undefined) was run?
**A.** The survival was inactive: 86%.

**Q.** How did the survival turn out when `COc1ccc(-c2onc(C)c2C)cc1S(=O)(=O)N1CCc2ccccc21` was run?
**A.** The survival was active: 1%.

**Q.** With `O=C1CCC(=O)N1CC(O)CCOc1ccc(OCCC(O)CN2C(=O)CCC2=O)cc1` (centres undefined) as the compound, how does the survival read?
**A.** The survival was inactive: 113%.

**Q.** Which survival does the source give for `CCOC(=O)c1ccc(NC(=O)CC2Nc3cccc4cccc(c34)NC2=O)cc1` (centres undefined) here?
**A.** Its survival is active: -13%.

**Q.** `Cc1noc(C)c1S(=O)(=O)Nc1ccc(C(=O)Nc2ccc(C(C)C)cc2)cc1` was tested. Which survival did it give?
**A.** Its survival is inactive: 72%.

**Q.** For `CCc1ccc(CN(C(=O)c2ccc(OC)cc2)C2CCS(=O)(=O)C2)cc1` (centres undefined), which survival is on record?
**A.** Its survival is inactive: 99%.

**Q.** For `COc1cc2c(cc1NC(=O)COc1ccc(Br)c(C)c1)oc1ccccc12`, which survival is on record?
**A.** The survival was inactive: 66%.

**Q.** `CCC12CN3CC(CC)(CN(C1)C3c1cccc(OC)c1O)C2=O` (centres undefined) was tested. Which survival did it give?
**A.** Its survival is inactive: 89%.

**Q.** How did the survival turn out when `Cc1cccc(N2CCN(C(=O)c3cn(C)c4ccc(S(=O)(=O)N(C)C)cc4c3=O)CC2C)c1` (centres undefined) was run?
**A.** The survival was inactive: 94%.

**Q.** `CN1CCN(C(=S)NCC2CCCO2)CC1` (centres undefined) was tested. Which survival did it give?
**A.** Its survival is inactive: 108%.

**Q.** Which survival does the source give for `CCc1ccc(-n2c(SCc3nc(-c4cc(OC)ccc4OC)no3)nnc2-c2ccccc2)cc1` here?
**A.** The survival was inactive: 74%.

**Q.** For `CCOC(=O)c1c(NC(=O)CCCOc2ccc(C)cc2)sc2c1CCC(C)C2` (centres undefined), which survival is on record?
**A.** Its survival is active: 2%.

**Q.** How did the survival turn out when `COc1ccc(C2=CC(c3ccccc3Cl)n3nc(-c4ccc(C)cc4)nc3N2)cc1` (centres undefined) was run?
**A.** The survival was inactive: 73%.

**Q.** Which survival does the source give for `CCc1nnc(SCC(=O)Nc2ccc(Cl)cc2F)c2cc3occc3n12` here?
**A.** The survival was inactive: 67%.

**Q.** For `CCc1ccc(CNC(=O)c2ccc(CS(=O)c3ccc(Br)cc3)o2)cc1` (centres undefined), which survival is on record?
**A.** Its survival is inactive: 106%.

**Q.** `CCOC(=O)Cn1c(=O)n(-c2ccccc2OC)c2nc(-c3ccccc3)nc(C(N)=O)c21` was tested. Which survival did it give?
**A.** The survival was active: -3%.

**Q.** For `COc1ccc(-c2c(C)c3ccc(O)c(CN4CCCCC4)c3oc2=O)cc1OC`, which survival is on record?
**A.** Its survival is inactive: 77%.

**Q.** For `S=c1[nH]nc(NCCc2ccccc2)s1`, which survival is on record?
**A.** The survival was inactive: 69%.

**Q.** How did the survival turn out when `Cc1ccc2nc(N(Cc3cccnc3)C(=O)c3ccco3)sc2c1` was run?
**A.** Its survival is inactive: 65%.

**Q.** Which survival does the source give for `COc1cc2c3c(c1)C1(C(=O)N3C(C)(C)C=C2C)C(C#N)=C(N)NC(=O)C1C(N)=O` (centres undefined) here?
**A.** The survival was inactive: 109%.

**Q.** For `COc1ccc(-c2nc3ccccc3s2)cc1NC(=O)c1ccc(C#N)cc1F`, which survival is on record?
**A.** The survival was inactive: 147%.

**Q.** `CCn1c(C(=O)NCc2ccc(C)cc2)cc2sc(Cl)cc21` was tested. Which survival did it give?
**A.** The survival was inactive: 78%.

**Q.** How did the survival turn out when `COc1cn(CC(=O)Nc2c(C)cc(C)cc2C)c(CN2CCCCC2)cc1=O` was run?
**A.** The survival was inactive: 68%.

**Q.** `CC(C)c1ccc(NC(=O)c2ccc3oc(=O)c(S(=O)(=O)c4ccc(F)cc4)cc3c2)cc1` was tested. Which survival did it give?
**A.** Its survival is inactive: 70%.

**Q.** `CCOCCc1nn2c(=O)cc(COC(=O)COc3ccc(C)c(C)c3)nc2s1` was tested. Which survival did it give?
**A.** Its survival is inactive: 69%.

**Q.** Which survival does the source give for `CCc1ccc(NC(=O)CC2C(=O)NCCN2C(=O)c2ccccc2OC)cc1` (centres undefined) here?
**A.** The survival was inactive: 121%.

**Q.** With `Cc1nc(SCc2cc(=O)c3cccc(F)c3[nH]2)n[nH]1` as the compound, how does the survival read?
**A.** The survival was inactive: 74%.

**Q.** For `CCOc1ccc(S(=O)(=O)NCCc2csc3nc(-c4ccc(OC)c(OC)c4)nn23)cc1`, which survival is on record?
**A.** The survival was inactive: 71%.

**Q.** With `CS(=O)(=O)N(CC(=O)N1CCCCC1)c1sc2c(c1C#N)CCCC2` as the compound, how does the survival read?
**A.** The survival was inactive: 105%.

**Q.** `Clc1cccc(CSc2nc(NCCc3ccccc3)c3ccccc3n2)c1` was tested. Which survival did it give?
**A.** The survival was inactive: 66%.

**Q.** With `COc1ccccc1CNCc1ccc(C(=O)O)s1` as the compound, how does the survival read?
**A.** The survival was inactive: 85%.

**Q.** How did the survival turn out when `O=S(=O)(Nc1ccccc1-c1ccccc1)c1cccs1` was run?
**A.** The survival was inactive: 132%.

**Q.** With `CC(C)c1ccc(NC(=O)CSc2ncnc3c2sc2ccccc23)cc1` as the compound, how does the survival read?
**A.** The survival was inactive: 84%.

**Q.** With `COc1ccc(NC(=O)Cn2ncc3c(C)n(Cc4cccc(Cl)c4)c(C)c3c2=O)cc1` as the compound, how does the survival read?
**A.** The survival was inactive: 89%.

**Q.** Which survival does the source give for `COc1ccc(C(=O)Nc2ccc(N3CCN(c4ccccc4)CC3)c(C(=O)O)c2)cc1` here?
**A.** The survival was inactive: 83%.

**Q.** How did the survival turn out when `COc1c(C)cccc1C(=O)Nc1ccc(Cl)c(-c2nc3cc(C)ccc3o2)c1` was run?
**A.** Its survival is active: -6%.

**Q.** `CC(C)CCOc1ccc(Cn2c(=O)sc3ccccc32)cc1` was tested. Which survival did it give?
**A.** Its survival is active: -3%.
